One test deals with HIV-1 IIIB. To be noted: 50% inhibition of virus replication, PHA-stimulated PBMCs, 7 days, reverse transcriptase activity. As for the experimental part:
HIV-1 IIIB was obtained through the AIDS Research and Reference Reagent Program, Division of AIDS, NIAID, NIH courtesy of Dr. Robert C. […] Fresh human peripheral blood mononuclear cells (PBMCs), seronegative for HIV and HBV, were isolated from blood of screened donors (Biological Specialty Corporation; Colmar, Pa.) using Lymphocyte Separation Medium (LSM; Cellgro® by Mediatech, Inc.; density 1.078+/−0.002 g/ml) following the manufacturer's instructions. Cells were stimulated by incubation in 4 μg/mL Phytohemagglutinin (PHA; Sigma) for 48-72 hours. Mitogenic stimulation was maintained by the addition of 20 U/mL recombinant human IL-2 (R&D Systems, Inc) to the culture medium. PHA-stimulated PBMCs from at least two donors were pooled, diluted in fresh medium and added to 96-well plates at 5×10^4 cells/well. Cells were infected (final MOI≈0.1) in the presence of 9 different concentrations of test compounds (triplicate wells/concentration) and incubated for 7 days. […] Following removal of supernatant samples, compound cytotoxicity was measured by the addition of 3-(4,5-dimethylthiazol-2-yl)-5-(3-carboxymethoxyphenyl)-2-(4-sulfophenyl)-2H-tetrazolium (MTS; CellTiter 96 Reagent, Promega) following the manufacturer's instructions. […] AZT (nucleoside reverse transcriptase inhibitor) was used as the assay control compound.

The test system of the next test is HIV-1 NL4-3G. In words: Antiviral activity in SCID-hu Thy/Liv mice inoculated with T-20-sensitive NL4-3G. The format is in vivo.

What is called IC50 is the concentration needed to halve the response being measured. A lower IC50 goes with greater potency in that assay. enfuvirtide returned a 50% inhibitory concentration (IC50) in the test with HIV-1 IIIB of 2.2 nM. The “antiviral activity with infrequent or delayed dosing, HIV-1 RNA, p24, thymocyte depletion” value in the test with HIV-1 NL4-3G (30 mg/kg s.c. every fourth day (Q4D) or every seventh day (Q7D), beginning 1 day before or 3 days after inoculation) is listed as “no reduction in HIV-1 RNA or p24 nor did it protect from thymocyte depletion”. The “antiviral activity with infrequent dosing” value in the test with HIV-1 NL4-3G (HIV-1-infected SCID-hu Thy/Liv mice, infrequent dosing) is listed as “lost activity”.

The values above are taken from US20090088378A1, “LONG LASTING INHIBITORS OF VIRAL INFECTION” (priority 2007, published 2009).
